# T1: Munc13-4 (wild type, His6-tagged human Munc13-4) (human, UniProt Q70J99 1-1090)
# T1 sequence: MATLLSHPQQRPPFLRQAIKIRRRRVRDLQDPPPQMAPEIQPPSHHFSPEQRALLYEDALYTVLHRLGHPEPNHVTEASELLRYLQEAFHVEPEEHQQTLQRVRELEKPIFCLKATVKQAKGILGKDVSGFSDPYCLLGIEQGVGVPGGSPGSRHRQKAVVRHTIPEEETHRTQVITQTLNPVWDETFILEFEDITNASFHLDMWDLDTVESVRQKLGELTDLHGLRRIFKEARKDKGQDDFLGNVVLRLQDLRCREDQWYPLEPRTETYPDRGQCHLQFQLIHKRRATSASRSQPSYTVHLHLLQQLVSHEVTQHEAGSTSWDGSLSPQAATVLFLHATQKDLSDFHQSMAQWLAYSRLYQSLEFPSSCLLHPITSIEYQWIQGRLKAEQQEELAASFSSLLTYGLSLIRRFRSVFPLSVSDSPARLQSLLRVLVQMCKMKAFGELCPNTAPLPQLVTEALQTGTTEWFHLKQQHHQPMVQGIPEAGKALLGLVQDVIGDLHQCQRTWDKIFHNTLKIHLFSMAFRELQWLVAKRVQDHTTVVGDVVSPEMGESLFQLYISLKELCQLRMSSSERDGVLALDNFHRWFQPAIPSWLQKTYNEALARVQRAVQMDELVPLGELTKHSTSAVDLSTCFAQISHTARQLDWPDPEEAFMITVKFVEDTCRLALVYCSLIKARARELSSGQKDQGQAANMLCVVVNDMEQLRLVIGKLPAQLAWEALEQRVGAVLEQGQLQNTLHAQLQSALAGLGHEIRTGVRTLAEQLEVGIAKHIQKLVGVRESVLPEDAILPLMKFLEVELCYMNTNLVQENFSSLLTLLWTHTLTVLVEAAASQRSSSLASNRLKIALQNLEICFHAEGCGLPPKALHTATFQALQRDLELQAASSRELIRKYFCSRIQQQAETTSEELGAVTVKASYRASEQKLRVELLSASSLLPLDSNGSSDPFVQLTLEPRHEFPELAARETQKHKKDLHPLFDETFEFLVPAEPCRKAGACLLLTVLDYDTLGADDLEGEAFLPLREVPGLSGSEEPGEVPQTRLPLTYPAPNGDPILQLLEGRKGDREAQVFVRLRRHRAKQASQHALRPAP
# B1: syntaxin-1([…]), H3 domain protein (domain or fragment)
# chain: not shown
# Target: T1, Munc13-4 (wild type, His6-tagged human …)
# Experiment: SPR
binder,measurement,value
B1,binding result,binds

# Source: paper PMC3328385 (The Journal of Cell Biology, 2012)
